Measured values: paper PMC12820563
This is one part of the list. The list includes weakly bound sequences.

target: T1, MBP-FoxP3dN (UniProt Q99JB6); assay: PD-seq (MBP pull-down with sequencing); conditions: 20 mM Tris-HCl pH 7.5, 100 mM NaCl, 1.5 mM MgCl2, 0.4 uM protein, 0.1 uM dsDNA library, 30 min, room temperature, amylose pull-down; high values mean tight binding; double strand, one strand shown
T1 sequence: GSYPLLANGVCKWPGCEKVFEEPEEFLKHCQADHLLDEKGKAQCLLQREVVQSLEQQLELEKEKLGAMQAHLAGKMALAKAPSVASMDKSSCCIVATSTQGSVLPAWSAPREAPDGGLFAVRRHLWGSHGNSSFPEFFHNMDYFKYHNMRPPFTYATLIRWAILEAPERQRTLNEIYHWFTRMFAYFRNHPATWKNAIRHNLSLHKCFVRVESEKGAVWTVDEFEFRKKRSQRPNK

Row | Sequence | binding signal (RPM ratio (pull-down/input))
1 | GATGATTGTTCTCCCAGCTGATGAATTCGGGACGTCGAGTAAACAAATTTTCCTAATCTTTCTGTTCAAGCGCCATCTAC | 0.287
2 | GATGATTGTTCTCCCAGCTGATGAATTTACTAAGTCGAGTAAACAAATTTTCCTAATCTTTCTGTTCAAGCGCCATCTAC | 0.32
3 | GATGATTGTTCTCCCAGCTGATGAATTAGGTCCTTCGAGTAAACAAATTTTCCTAATCTTTCTGTTCAAGCGCCATCTAC | 0.354
4 | GATGATTGTTCTCCCAGCTGATGAATTCTCGGGCTCGAGTAAACAAATTTTCCTAATCTTTCTGTTCAAGCGCCATCTAC | 0.204
5 | GATGATTGTTCTCCCAGCTGATGAATTCGTTCTCTCGAGTAAACAAATTTTCCTAATCTTTCTGTTCAAGCGCCATCTAC | 0.324
6 | GATGATTGTTCTCCCAGCTGATGAATTAGTCCCTTCGAGTAAACAAATTTTCCTAATCTTTCTGTTCAAGCGCCATCTAC | 0.675
7 | GATGATTGTTCTCCCAGCTGATGAATTTCCGATATCGAGTAAACAAATTTTCCTAATCTTTCTGTTCAAGCGCCATCTAC | 0.376
8 | GATGATTGTTCTCCCAGCTGATGAATTATCGGACTCGAGTAAACAAATTTTCCTAATCTTTCTGTTCAAGCGCCATCTAC | 0.253
9 | GATGATTGTTCTCCCAGCTGATGAATTTCTACGCTCGAGTAAACAAATTTTCCTAATCTTTCTGTTCAAGCGCCATCTAC | 0.231
10 | GATGATTGTTCTCCCAGCTGATGAATTTTCCTTATCGAGTAAACAAATTTTCCTAATCTTTCTGTTCAAGCGCCATCTAC | 0.31
11 | GATGATTGTTCTCCCAGCTGATGAATTGCCGTGATCGAGTAAACAAATTTTCCTAATCTTTCTGTTCAAGCGCCATCTAC | 0.686
12 | GATGATTGTTCTCCCAGCTGATGAATTTGATTATTCGAGTAAACAAATTTTCCTAATCTTTCTGTTCAAGCGCCATCTAC | 4.96
13 | GATGATTGTTCTCCCAGCTGATGAATTCGAGACCTCGAGTAAACAAATTTTCCTAATCTTTCTGTTCAAGCGCCATCTAC | 0.251
14 | GATGATTGTTCTCCCAGCTGATGAATTCCCCAGTTCGAGTAAACAAATTTTCCTAATCTTTCTGTTCAAGCGCCATCTAC | 0.215
15 | GATGATTGTTCTCCCAGCTGATGAATTGCGTCACTCGAGTAAACAAATTTTCCTAATCTTTCTGTTCAAGCGCCATCTAC | 1.97
16 | GATGATTGTTCTCCCAGCTGATGAATTAGTAATGTCGAGTAAACAAATTTTCCTAATCTTTCTGTTCAAGCGCCATCTAC | 1.13
17 | GATGATTGTTCTCCCAGCTGATGAATTGTTGGGCTCGAGTAAACAAATTTTCCTAATCTTTCTGTTCAAGCGCCATCTAC | 1.71
18 | GATGATTGTTCTCCCAGCTGATGAATTGAATGAGTCGAGTAAACAAATTTTCCTAATCTTTCTGTTCAAGCGCCATCTAC | 0.413
19 | GATGATTGTTCTCCCAGCTGATGAATTTGCGCATTCGAGTAAACAAATTTTCCTAATCTTTCTGTTCAAGCGCCATCTAC | 7.07
20 | GATGATTGTTCTCCCAGCTGATGAATTCAGCTCCTCGAGTAAACAAATTTTCCTAATCTTTCTGTTCAAGCGCCATCTAC | 0.649

Row | Sequence | binding signal (RPM ratio (pull-down/input))
21 | GATGATTGTTCTCCCAGCTGATGAATTGACGGGTTCGAGTAAACAAATTTTCCTAATCTTTCTGTTCAAGCGCCATCTAC | 0.415
22 | GATGATTGTTCTCCCAGCTGATGAATTTAAAAAATCGAGTAAACAAATTTTCCTAATCTTTCTGTTCAAGCGCCATCTAC | 0.162
23 | GATGATTGTTCTCCCAGCTGATGAATTAGAACTGTCGAGTAAACAAATTTTCCTAATCTTTCTGTTCAAGCGCCATCTAC | 0.308
24 | GATGATTGTTCTCCCAGCTGATGAATTTGGTCTATCGAGTAAACAAATTTTCCTAATCTTTCTGTTCAAGCGCCATCTAC | 0.749
25 | GATGATTGTTCTCCCAGCTGATGAATTCGAGAAGTCGAGTAAACAAATTTTCCTAATCTTTCTGTTCAAGCGCCATCTAC | 0.16
26 | GATGATTGTTCTCCCAGCTGATGAATTGCAGTAGTCGAGTAAACAAATTTTCCTAATCTTTCTGTTCAAGCGCCATCTAC | 0.742
27 | GATGATTGTTCTCCCAGCTGATGAATTCATAGATTCGAGTAAACAAATTTTCCTAATCTTTCTGTTCAAGCGCCATCTAC | 0.351
28 | GATGATTGTTCTCCCAGCTGATGAATTCCGAGCTTCGAGTAAACAAATTTTCCTAATCTTTCTGTTCAAGCGCCATCTAC | 0.301
29 | GATGATTGTTCTCCCAGCTGATGAATTCCGCGGATCGAGTAAACAAATTTTCCTAATCTTTCTGTTCAAGCGCCATCTAC | 0.261
30 | GATGATTGTTCTCCCAGCTGATGAATTAATTAATTCGAGTAAACAAATTTTCCTAATCTTTCTGTTCAAGCGCCATCTAC | 0.374
31 | GATGATTGTTCTCCCAGCTGATGAATTGCACCTCTCGAGTAAACAAATTTTCCTAATCTTTCTGTTCAAGCGCCATCTAC | 1.2
32 | GATGATTGTTCTCCCAGCTGATGAATTACACCTATCGAGTAAACAAATTTTCCTAATCTTTCTGTTCAAGCGCCATCTAC | 0.645
33 | GATGATTGTTCTCCCAGCTGATGAATTTTTGAAGTCGAGTAAACAAATTTTCCTAATCTTTCTGTTCAAGCGCCATCTAC | 0.206
34 | GATGATTGTTCTCCCAGCTGATGAATTACTAATCTCGAGTAAACAAATTTTCCTAATCTTTCTGTTCAAGCGCCATCTAC | 0.468
35 | GATGATTGTTCTCCCAGCTGATGAATTATACAGCTCGAGTAAACAAATTTTCCTAATCTTTCTGTTCAAGCGCCATCTAC | 0.504
36 | GATGATTGTTCTCCCAGCTGATGAATTTTAAGATTCGAGTAAACAAATTTTCCTAATCTTTCTGTTCAAGCGCCATCTAC | 0.275
37 | GATGATTGTTCTCCCAGCTGATGAATTAAGGTGCTCGAGTAAACAAATTTTCCTAATCTTTCTGTTCAAGCGCCATCTAC | 0.449
38 | GATGATTGTTCTCCCAGCTGATGAATTCGTGTTATCGAGTAAACAAATTTTCCTAATCTTTCTGTTCAAGCGCCATCTAC | 1.72
39 | GATGATTGTTCTCCCAGCTGATGAATTGCCTGGTTCGAGTAAACAAATTTTCCTAATCTTTCTGTTCAAGCGCCATCTAC | 0.696
40 | GATGATTGTTCTCCCAGCTGATGAATTGAATAACTCGAGTAAACAAATTTTCCTAATCTTTCTGTTCAAGCGCCATCTAC | 0.343
